# The source gives no read counts; variants with many changes may rest on few reads.
# B1: LINE1-full (parent)
# chain: UACGUAGGUGGUUUUCCCCUGAUAGUGCUAAGGGGGCCUGGAAGUUUGGACUGGGCAGAGCUCAACACAGCGUGGCAAAGUGGCUGUGGCUAGACUGCCUCUCUGGAUUCCUCGUCACUCAGCAGGGCAUCUCUGAGAGAAAUGCC
# Variants of: B1
# Assay: self-cleavage, relative activity (ratio to wild type); higher = more cleavage; in vitro, sequencing; the parent is a self-cleaving ribozyme
row,Variant,self-cleavage
1,A57G A79G G125A,0.46
2,U52C A59G G105A U143C,0.07
3,A50U C90U A138U,0.04
4,G54A C103A A140G A142G,0.23
5,U52A U112C U132C A142G,1.13
6,U52A A94C U132C,0.03
7,A50U A59U G105U U112G U115C A129G,1.23
8,C56A A69G U143C C146U,0.05
9,U52C A77U U119C U132C,2.57
10,G55A G72A A92C A121G,0.04
11,G55U A65G U102A,0.02
12,G55U G74A U87C A117G,0.03
13,U52A U85A G106A A121U,0.07
14,U52A A141G U143A,1.63
15,G53A U62C U115C,0.05
16,A50U U115A A136G,1.39
17,G54U A57G A65U A79G G126A,0
18,G53U A107G A138G,1.36
19,A50U U62C G82A,0.03
20,U52C A64U A142G,0.5
21,A57G A129U U134C,1.22

row,Variant,self-cleavage
1,A57C A78G A79G U143A,0
2,G55A U109C C116U,0.1
3,U52A U85C A94G,0.1
4,A57U C71U A121G,0.05
5,U52G A65G U73A G122C,0
6,U52G C71A U109C,0.35
7,A57G A77U A138G,0.49
8,U52A U102A U119A,1.41
9,A50U A64U U100C,0.51
10,G54A U87C U134C A142G,0.24
11,U52A U102A U109A U143A,1.31
12,A50U A59U U96C,0.03
13,U52C U130A A138G,0.89
14,U52A A67U A77G U96A,0.05
15,A50U U100C A124G,1.56
16,C56U U62G U100A,0.07
17,U52C G75C A129U A142G,0
18,G54A A79G A136U,0.6
19,A57G A79G G83A U85C A107G,0
20,U52C U96C U115C,0
21,U52A A94G U130C,0.34

row,Variant,self-cleavage
1,U52A U96A U115C,0.1
2,A57G A64U G126C,0.31
3,C51A A94U U100A U102C,0.53
4,A50U A79G G86A,0.04
5,U52A G82U U87C U109A U130G,0.19
6,U52A U73C A94G,0.23
7,G58A C90G A124G A142U,0.04
8,U52C U91C U112A,0.89
9,A50U A79U U109G U134C U143G,0.79
10,U52G A107U U112C U119A A141U,0.39
11,U52C C71U U81G,0.34
12,G53A U104A U134C,1.24
13,U52C A57U A141G,0.03
14,U52C A65U U108C A129U,0.23
15,A57U A107G A117G U130C,0
16,C51U A69G U115A G144A,1.2
17,G54A U73A U87C G125A U132C,0
18,A57U A77G A141G,0.18
19,A57G U96A A141G,0.04
20,C56A U87C U143A,0.02
21,G53U G83A A92G A107G U130C,0

row,Variant,self-cleavage
1,A57G C103A A129G,0.77
2,A57G A79G A94U,0.5
3,G54A A64G U85A,0.03
4,U52C U102C U134C,0
5,G55A U96A U119A,0.03
6,U52A A57G C113U U115G A141G,1.14
7,U52C A129G A141G,1.11
8,G54A A65G A92G A136G,0.13
9,C51U A65U A77G U85C,0.19
10,U52C U87A A136G,0.07
11,A57G A69G A79G U132C,0
12,C56U A136U A138G,0.33
13,A50U G74U U85C U132A,0.17
14,A57U U62C U132C A141G,0.13
15,G53A U104A A121C A136G C145U,1.56
16,U52C G58U A67U,0.04
17,C56U A59G A67G A117G,0.11
18,U52A A69G U85A U130C,0.04
19,A57U U73C U102A A117U,0.2
20,C51A A140G A142G,1.64
